Laboratory results from the supplement of paper PMC11417369.
± gives the standard deviation of the averaged measurements. Some of the results follow.

tested on: PfAP2-G AP2 domain (GST-tagged); test: gcPBM binding intensity (ln(normalized median fluorescence intensity)); higher = stronger DNA binding
Summary of the method: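 Plasmodium falciparum DNA-binding domains carrying a GST tag were expressed in E. coli and applied for 1 h, at about 25 μg on average, to an Agilent 4 × 180k array. The array held primer-extended double-stranded 36-bp intergenic genomic probes together with negative controls, and binding took place in 1× PBS with 1% milk, 0.2 mg/ml BSA, 0.5% salmon testes DNA and 0.03% Triton X-100. An Alexa488 anti-GST antibody detected bound protein, and the array was scanned at 488 nm. Binding intensity is taken as the highest Masliner-normalised natural-log median intensity across replicate spots of either probe orientation.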

Sequence	gcPBM binding intensity (ln)
TAAACGTTATATAGTGCATGTCATATTTTATTATAT [TGCATGCA_site935]	9.845 ± 0.064
TTATAATATTATAAAATAACATTTATTAATTATTGG [CACACA_negctrl_site1794]	9.69 ± 0.12
TTATTATATTAAAATTGTACTTGCTTTCAATATGAT [XGTACX_site5305]	11.1 ± 0.73
ACGCTAATTATGTGCACACAAATTAAAGGTCTACAA [CACACA_site147]	10.7 ± 0.4
TGTTTCTGCTCTGGACATTTTTAAAAAAGGGAAAGC [CACACA_negctrl_site1463]	10.5 ± 0.44
ACAAAAAAACATGAAACACACACAAATATATATATA [CACACA_site8566]	9.96 ± 0.25
TGCCTATTTTGGATGTGTACACATATATATATTTAT [XGTACX_site6741]	11.7 ± 0.88
ATTCTATAATATAAGAGTACTTATTTTTTTTAATTT [XGTACX_site7671]	11.1 ± 0.76
TATAAAATTAAACAAAGTACTAGACATATATATAGA [XGTACX_site3247]	10.7 ± 0.31
AATGTTATTTGTTTATCACACATTAGGATGTTTATA [CACACA_site5710]	9.82 ± 0.16
TATACATACATACATACACACACACCGATATATACA [CACACA_site8184]	10.1 ± 0.15
TTCCAAAAAATTATTACACACATATGGGCACATATA [CACACA_site679]	10.6 ± 0.4
ATGAATTTATTACATTGTACATTTTTAAAAGGTTAC [XGTACX_site124]	10.8 ± 0.49
TTATATATTTTTTTTTGTACATAGAAGAGGGAAAAA [XGTACX_site2178]	10.8 ± 0.67
AAAAAAAAAAAAAACACACACACAAGAGTATATAAA [CACACA_site6580]	10.1 ± 0.27
AATAAAATGAAATGAAATAAAAAAAAAAAAAAAATG [TGCATGCA_negctrl_site305]	9.84 ± 0.26
ACTTATTGTGGTTTTGCATGTAGCATTTTTACATAC [TGCATGCA_site247]	10.37 ± 0.092
TATACCAATGAATGAGTGCAAAGAAGATAAGGAAAA	10.2 ± 0.13
AAGGTATTTATAACTACACACTTATTTATAACCTAA [CACACA_site6194]	9.935 ± 0.007
AACATATATATATACACACACATATATATATGAAAT [CACACA_site279]	9.95 ± 0.26
ATTATTAATATTATATGTACGCACTATATCAAGGCT [XGTACX_site6468]	11.5 ± 1.1
TATATTATAAACATATGTACATATGTATAAATACAT [XGTACX_site722]	11.1 ± 0.67
AAAAAAAAAAAAAAATTAAAGTAATGGAAAAAAAAA [CACACA_negctrl_site1666]	9.83 ± 0.042

Sequence	gcPBM binding intensity (ln)
ACAACGCGTTAAATGTGTACATATTTATAAGTATAT [XGTACX_site8777]	11.5 ± 0.88
AATCATTTTATTATCCTAACAAAAAAAAAATATATT [CACACA_negctrl_site115]	9.86 ± 0.18
ACGATGCATTAATCTGCACACCACAACAAAACGTTT [CACACA_site899]	10.2 ± 0.16
TTTGCATTTCTTAATTGTACTTAAAAAAAAAATAAT [XGTACX_site758]	11.3 ± 0.91
AGCTATGTATTCTACACACACATACAGACATATATA [CACACA_site3428]	10.03 ± 0.021
ATTAAATGCACATATACACACACCCAATTTTAAGTT [CACACA_site3049]	10.2 ± 0.14
AATAATTTTTAAATATAAACATTTTTTTTTTTTTTT [GTGCAC_negctrl_site532]	9.72 ± 0.057
TTTTATTTTTTATTTGCACACAATATGTAAAAAAAT [CACACA_site2927]	10.3 ± 0.43
ATAAAATATTAGACATTTATTAATATTACACATATC [XGTACX_negctrl_site364]	9.645 ± 0.092
ATATATATATATTCCACACACACACCCAAAAAAAAA [CACACA_site3649]	10.4 ± 0.43
ACAAAATAAACCACGTGTACAAATTTATAATGTGTA [XGTACX_site1153]	11.2 ± 0.63
CTTTTTTATATCTCTACACACATTTATAACCATTTG [CACACA_site4897]	10.2 ± 0.11
TCAAAAGAATAATTGGTGCAAATTATATAATATAAT [GTGCAC_site9804]	9.9 ± 0.15
ATATTTATGGAAAAAGAACACACAATCAAACAAAAA [CACACA_site9233]	10.21 ± 0.035
TAATATAATAGAAGTGTACACACATATTTATGGGTG [CACACA_site9023]	11.6 ± 0.93
TAATATAATGATGCAGTGCATATGTTAAAATGAAAA	10.05 ± 0.099
TATTTTAAAAAAAAAAGTACACATAATATATATAAC [XGTACX_site5416]	11.5 ± 0.99
ATACATTTATTGTATTGTACATAATATTATATATTC [XGTACX_site7115]	10.9 ± 0.49
ATATATATAATTTTTACACACGCAATAAATATATAT [CACACA_site218]	9.99 ± 0.13
ACAAGGAATATATAAGATAATTTTAAATATAACACG [CACACA_negctrl_site1734]	9.77 ± 0.057
TAAATATCAAAACACACACACAAAAGTGAATAAATA [CACACA_site3762]	10.1
AATCAAAATATATCTACACACATTTAAGTAACACAT [CACACA_site3482]	10.04 ± 0.021
TTATAATAAAGAGGAGTGCAAAAAAAAAAAAAAAAA	9.98 ± 0.56

Sequence	gcPBM binding intensity (ln)
TATAAGGTGTCCTATACACACTCCAATAAATATATA [CACACA_site2091]	10.7 ± 0.64
TAAAGAGAAAAACATACACACACAACAAAATATGTA [CACACA_site8872]	10.01 ± 0.028
AGGAACATAAGCAATGTATAAACATAAAACTATAAT [CACACA_negctrl_site1832]	9.73 ± 0.33
TATTAATTAAACCATACACACATAACTTTTTTATAA [CACACA_site6526]	9.955 ± 0.021
ATTTTTTTCTTAGGAGTGCACTTATATTTATTTTAT	10.6 ± 0.3
AAAAAAAAAAAAAACACACACACACCCACATATACA [CACACA_site2663]	10.4 ± 0.33
CTCTGTTGTCTTAGTTGTACAATAGAAAAAAATAAT [XGTACX_site7043]	11.5 ± 0.88
TCTTTTAAACAGTACACACACACATCTATATTTATA [CACACA_site6559]	11.2 ± 0.79
ATATATATATATATATGTACATATTGTATTAATTAT [XGTACX_site1919]	11.1 ± 0.49
AAAGGTTCACATTATATAGTTATGTAATATATATGT [CACACA_negctrl_site542]	9.885 ± 0.092
ATATTGTATTTATGTACACACATTTTTGGAATATGA [CACACA_site4861]	11.6 ± 0.92
TTTTTTCTCTGTGGCTGTACTTTGAAGATATTTTAT [XGTACX_site8243]	11.1 ± 0.55
TTTTTTACTTTTGAGACATTTCATATTTTTATTCAC [GTGCAC_negctrl_site730]	10.02 ± 0.049
TACAGGAATATTTTTACACACTAAAAATTATAAAAT [CACACA_site1649]	10 ± 0.15
TGATTGAGTAAAATGGGTACATATACACTATTACAT [XGTACX_site5232]	11.2 ± 0.67
AGTATAAAAATATATTTACACACTATATATATCGAA [CACACA_site8494]	9.87 ± 0.11
ATATGTTACAGACACACACACACATAAAAAAACAAA [CACACA_site3248]	10.2 ± 0.26
TATTGTTGTTCATGTACACACTATAATAAAAGCAAT [CACACA_site6148]	11.5 ± 0.73
TAAAATATATATATGTGTACATAACATATAATTTTT [XGTACX_site1725]	11.4 ± 0.91
TTATTTAGTATATTATGTACATACAATGCCTGGGAA [XGTACX_site4578]	11.2 ± 0.72
TTTTCATATTATAGTGCACACAAAAATATATATATG [CACACA_site8929]	10.6 ± 0.45
AATAATCTATATTGTACACACAAAATGGGAAAAAAA [CACACA_site6969]	11.5 ± 0.92
AATTAGATTTACTGAAGTACTTAATTTATTTTATTA [XGTACX_site3407]	11.1 ± 0.56

Sequence	gcPBM binding intensity (ln)
ACCCCCAATACGGAAACACACAAGTTATTTTATCAT [CACACA_site8874]	10.9 ± 0.4
AGGTACTTTTTTAAAACACACATATAACATATACAC [CACACA_site6629]	11.3 ± 1.1
AAAAAAAAATACTACTGTACTTTTTTTGGACATCTA [XGTACX_site1096]	11.6 ± 1
TGATTATACGCACGCGCACACACAACCAAAAAAAAA [CACACA_site3537]	10.8 ± 0.66
TGTTTATTTTTAAAAAGTACATATATAAAAAATATC [XGTACX_site4902]	11.4 ± 0.98
ATAATTTGGAAACACACACACACACCCACATATATA [CACACA_site2286]	10.3 ± 0.34
TTAAATGAAAAATGGGGTACATATATACAAATATAT [XGTACX_site5931]	11.5 ± 0.95
AAATACTTGTCATATTGTACATGTTTGTGATATATA [XGTACX_site3185]	10.8 ± 0.58
GTTAAGAATATATAATGTACTTATTTTAATATAGTA [XGTACX_site6088]	11.1 ± 0.84
AAAAAAGGAAAAGATACACACCGTAAATTAAAATTT [CACACA_site5908]	9.87 ± 0.11
GAAGGAATATACAATTGTACTTGGCAAAAAAAAAAA [XGTACX_site1884]	11 ± 0.7
ATATATTTATATATTACACACAATATTGTACAGATA [CACACA_site8215]	11.2 ± 0.73
ATATATCATAATAGAGGTACACATATTATATATATA [XGTACX_site782]	11.3 ± 0.86
TTTATAAATATATATACACACACATATATATTATAT [CACACA_site8099]	9.9
ATATTAAATATAATTTGTACGCATTTTTTTTTTTTT [XGTACX_site1910]	11.5 ± 0.82
TAAAATATAATAAAATGTACACGCATGCAATAGAAT [XGTACX_site7434]	11.3 ± 0.61
GCTTCTTAGTATACTTTATAAAATATATATTAAATA [XGTACX_negctrl_site57]	10.1 ± 0.3
ATATCGGGTGCATTAACACACATTTATTTGAATAAA [CACACA_site2350]	10.3 ± 0.42
AGCATTTTTCATTTTGCACACATGTTTTATGTGTAT [CACACA_site3454]	10.1 ± 0.021
AATTATAATTAATAGAGTACTGAATATATATATATA [XGTACX_site8683]	10.9 ± 0.71
